The structures appear in SMILES notation. The whole screen tested about 48,000 compounds, of which about 550 (1.1%) were called active. About 4% were inconclusive and are not listed. Rule as the data show it: active = potency below about 15 µM; inconclusive = mostly about 16 µM to 33 µM; inactive = weaker than that. Some of the results follow.
Potency is read from the fitted curve at half-maximal effect.

This experiment addresses Lysosomal acid glucosylceramidase (Homo sapiens) (UniProt P04062). In words: Glucocerebrosidase.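 Also: the screen sought inhibitors.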 To be noted: purified enzyme, resorufin glucoside fluorescence (screen aimed at inhibitors), 20 min. The gist of the method: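 Compounds titrated against 0.2 nM normal enzyme, 30 uM resorufin beta-D-glucopyranoside substrate, citrate/phosphate buffer with taurocholate and tween-20, pH 5.9. Reaction ran 20 min at room temperature; fluorescence (Ex 548/Em 600) gave AC50.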
Sequence of UniProt P04062 (P04062 whole entry, looked up): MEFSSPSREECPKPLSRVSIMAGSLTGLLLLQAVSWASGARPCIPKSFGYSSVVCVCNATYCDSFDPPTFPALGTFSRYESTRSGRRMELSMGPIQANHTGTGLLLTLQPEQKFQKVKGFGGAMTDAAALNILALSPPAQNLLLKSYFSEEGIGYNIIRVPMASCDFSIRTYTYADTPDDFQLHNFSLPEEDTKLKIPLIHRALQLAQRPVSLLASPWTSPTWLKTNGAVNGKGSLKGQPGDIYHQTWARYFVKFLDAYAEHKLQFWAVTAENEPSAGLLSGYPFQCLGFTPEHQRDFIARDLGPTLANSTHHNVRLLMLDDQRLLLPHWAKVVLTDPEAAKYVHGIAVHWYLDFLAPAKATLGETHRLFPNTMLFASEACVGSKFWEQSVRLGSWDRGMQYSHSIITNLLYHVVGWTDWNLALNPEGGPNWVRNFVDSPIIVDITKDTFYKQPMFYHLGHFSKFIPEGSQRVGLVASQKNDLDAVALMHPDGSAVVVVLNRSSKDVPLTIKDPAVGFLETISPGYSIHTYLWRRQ
`COCC(=O)NCc1ccc2c(c1)cc(C)n2C`: the Potency is inactive: > 76.9 µM. Under `O=C(O)CC1CCCC(c2ccccc2)C1=O` (stereo not given) stands inactive: > 76.9 µM; under `CC(C)c1[nH]nc2c1C(c1cccc(OC(=O)N3CCOCC3)c1)C(C#N)=C(N)O2` (stereo not given), inactive: > 76.9 µM. For `O=C(NC1(C(F)(F)F)NC(=O)N(C2CCCCC2)C1=O)c1cccs1` (stereo not given) the value was inactive: > 76.9 µM; for `Cc1noc(C)c1S(=O)(=O)N1CCC(C(=O)NCCN2CCC(C)CC2)CC1`, inactive: > 76.9 µM. Under `COc1ccccc1NC(=O)C1CCCN1C(=O)NCc1ccccc1` (stereo not given) stands inactive: > 76.9 µM; under `O=C(CN(C1CC1)S(=O)(=O)c1ccc(S(=O)(=O)NC2CCCCC2)cc1)Nc1ccccc1`, “inactive”; under `O=C(c1ccc(F)cc1)C1CCN(C(=O)c2ccncc2)CC1`, inactive: > 76.9 µM. Take `CCc1cc2cccc(C)c2nc1SCC(=O)N1CCN(C(=O)c2ccco2)CC1`: the Potency is inactive: > 76.9 µM. With `CCCCn1c(SCC(=O)NCC2CCCO2)nc2ccc(N3CCOCC3)cc2c1=O` (stereo not given), the Potency is inactive: > 76.9 µM. For `O=C(Nc1ccc(-c2cn3ccsc3n2)cc1)C1CC1` the value was “inactive”; for `CC1CN(CCC(=O)Nc2ccc3c(c2)CCC3)CC(C)O1` (stereo not given), inactive: > 76.9 µM.

Take `CC(=O)Nc1cn(C(C)=O)c(C)n1`: the Potency was inactive: > 76.9 µM. Under `CCc1c(C)nc2ncnn2c1N1CCC(C(=O)N2CCN(c3ccccc3)CC2)CC1` stands inactive: > 76.9 µM; under `Cc1cc(C)n(-c2ccc(C(=O)N3CCc4ccccc43)cc2)n1`, inactive: > 76.9 µM. For `Cc1ccc(S(=O)(=O)C2(C(=O)N3CCN(C4CCCCC4)CC3)CC2)cc1` the value was inactive: > 76.9 µM. Consider `CC1CCCC(C)N1C(=O)c1cc(F)c(F)cc1Cl` (stereo not given), for which the Potency is inactive: > 76.9 µM. As for `COc1ccc2[nH]cc(C(=O)N3CCCCC3)c(=O)c2c1`, the Potency is inactive: > 76.9 µM.

Take `CCN1CCCC1CNC(=O)Cn1cnc2sc(C)c(S(=O)(=O)N3CCC(C)CC3)c2c1=O` (stereo not given): the Potency was inactive: > 76.9 µM. For `CC(C)C(=O)NC(C)C(c1cccs1)N1CCOCC1` (stereo not given) the value was inactive: > 76.9 µM. Take `O=c1n(-c2ccccc2)c(=O)n(Cc2ccccn2)n1Cc1ccccn1`: the Potency is inactive: > 76.9 µM.

On to `Cc1ccc(-c2noc(CCC(=O)NCC3CCN(Cc4cccc(C)c4)CC3)n2)cc1`, for which the Potency was inactive: > 76.9 µM. For `CCN1CCN(CCNC(=O)c2cn(C(C)c3ccccc3F)nn2)CC1` (stereo not given), the Potency is inactive: > 76.9 µM. With `CN(C)c1ccc(NC(=O)c2ccncc2)c2ccccc12`, the Potency is inactive: > 76.9 µM. For `CN(C1CCCCC1)S(=O)(=O)c1ccc(NC(=O)c2ccc(Br)o2)cc1` the value was inactive: > 76.9 µM.

As for `O=c1oc2c(CN3CCOCC3)c(O)ccc2c2c1CCCC2`, the Potency is inactive: > 76.9 µM. For `O=C(CSc1nnc(-c2ccccc2)n1C1CCCCC1)N1CCCC1` the value was inactive: > 76.9 µM. Under `Cc1c(NC(=O)CN2CCN(C(c3ccccc3)c3ccccc3)CC2)c(=O)n(-c2ccccc2)n1C` stands inactive: > 76.9 µM. For `Cc1cccc(-c2cc3nc4c(c(N5CCOCC5)n3n2)CCCC4)c1` the value was inactive: > 76.9 µM; for `O=C(CSc1nnc2c3c4c(sc3ncn12)CCCC4)NCc1ccco1`, inactive: > 76.9 µM. As to `CCCCn1nnnc1NCc1cc(OC)c(OC)c(OC)c1`, the Potency was inactive: > 76.9 µM. For `Cc1ccc(-c2csc(/C(C#N)=C(\O)CN3CCN(C(=O)c4ccco4)CC3)n2)cc1` the value was “inactive”.

As for `Cc1csc2c(=O)n3c(nc12)CCCCC3`, the Potency is inactive: > 76.9 µM.

On to `CCNc1nc(NCc2ccccc2)nc(Oc2ccc(=O)[nH]n2)n1`, for which the Potency was inactive: > 76.9 µM.

For the compound `CSCCC(NC(=O)c1ccco1)C(=O)OC(C)C(=O)NC(=O)NC1CCCCC1` (stereo not given), the Potency was inactive: > 76.9 µM. For `CCOC(=O)N1CCN(C(=O)c2sc3nc(-c4ccc(F)cc4)cn3c2C)CC1` the value was inactive: > 76.9 µM; for `CC1(C)OC(=O)C2(Cc3ccccc3N3CCCCC32)C(=O)O1` (stereo not given), inactive: > 76.9 µM; for `Cc1cc(C)c(NC2=NCC(=O)N2C2CCCCC2)c(C)c1`, inactive: > 76.9 µM. For `O=C(CNS(=O)(=O)c1cccs1)N1CCCC1`, the Potency was inactive: > 76.9 µM.

With `O=C(O)CC1NC(=O)N(c2ccc(Cl)cc2)C1=O` (stereo not given), the Potency was inactive: > 76.9 µM.

Consider `CCOC(=O)c1cn(CC)c2ccc(S(=O)(=O)N3CCC(C)CC3)cc2c1=O`, for which the Potency is inactive: > 76.9 µM.

Consider `CCOC(=O)N1CCN(S(=O)(=O)c2cccc3nonc23)CC1`, for which the Potency was inactive: > 76.9 µM. For `Cc1ccc(S(=O)(=O)c2nc(-c3ccc(F)cc3)oc2SCC(N)=O)cc1` the value was inactive: > 76.9 µM. Under `CCOC(=O)c1[nH]c2ccc(OC)cc2c1NC(=O)C(C)N1CCC2(CC1)OCCO2` (stereo not given) stands inactive: > 76.9 µM; under `COc1cccc(-n2c(C)c(C(C)=O)c(C(C)=O)c2C)c1`, inactive: > 76.9 µM. Under `O=C(CN(C(=O)CCC(=O)Nc1nccs1)c1ccc(F)cc1)NCc1ccco1` stands inactive: > 76.9 µM. Take `COc1ccccc1NC(=O)NCc1ccc2c(c1)OCO2`: the Potency is inactive: > 76.9 µM. For `Cc1cc(C)cc(N2C(=O)CC(n3ccnc3)C2=O)c1` (stereo not given) the value was inactive: > 76.9 µM. Under `COc1cccc(CN2CCCN(S(=O)(=O)c3ccc(Br)cc3)CC2)c1` stands inactive: > 76.9 µM. Under `Cc1ccc(S(=O)(=O)N2CCCCC2C(=O)N2CCN(Cc3ccccc3)CC2)cc1` (stereo not given) stands inactive: > 76.9 µM; under `CCOC(=O)c1ccc(NC(=O)CC2OCCN(CC)C2=O)cc1` (stereo not given), inactive: > 76.9 µM; under `c1ccc2c(Cn3nnc4ccccc43)cccc2c1`, inactive: > 76.9 µM.

Regarding `COC(=O)CN(c1cccc(C(C)=O)c1)S(C)(=O)=O`, the Potency was inactive: > 76.9 µM. For `Cc1cc(C)c2cc(CN(Cc3ccc4c(c3)OCO4)Cc3nnnn3Cc3ccco3)c(=O)[nH]c2c1` the value was inactive: > 76.9 µM.

Take `CCOC(=O)N1CCC(NC(=O)CC(NS(=O)(=O)c2ccc(C)cc2)c2ccco2)CC1` (stereo not given): the Potency is inactive: > 76.9 µM.

Consider `Cc1cc(C)c(C(=O)CN2C(=O)CCC2=O)cc1C`, for which the Potency was inactive: > 76.9 µM. For `COc1cccc(NC(=O)Cn2c(SCC(=O)N3CCOCC3)nc3ccccc32)c1` the value was inactive: > 76.9 µM. Under `FC(F)Oc1cccc2cccnc12` stands “inactive”; under `CCOc1ccc2[nH]c(=O)c(CN(CCO)C(=O)c3ccccc3F)cc2c1`, inactive: > 76.9 µM; under `COc1ccc(Cl)cc1NC(=O)CSc1nc(N2CCCCC2)nc(N2CCCCC2)n1`, inactive: > 76.9 µM. For `C=CCn1c(CCNC(=O)c2cccs2)nnc1SCC(=O)Nc1cccc(C(C)=O)c1` the value was inactive: > 76.9 µM. On to `N=c1ccn(Cc2cccc(Cl)c2)cc1`, for which the Potency was inactive: > 76.9 µM. Under `O=C(Nc1ccncc1)c1c(F)cccc1F` stands inactive: > 76.9 µM; under `CCOc1ccc2[nH]c(C)c(CN3CCCCC3)c(=O)c2c1`, inactive: > 76.9 µM. Under `COc1cccc(CN2CCN(CC(=O)Nc3ccccc3Cl)CC2)c1` stands “inactive”. Under `Cc1ccc(SC(C)C(=O)N2CCCC2)cc1` (stereo not given) stands inactive: > 76.9 µM; under `Cc1cccc2sc(NC(=O)CNS(=O)(=O)c3ccc(Br)s3)nc12`, inactive: > 76.9 µM.

Consider `CC(Sc1nnnn1C)C(=O)Nc1ccccc1-c1ccccc1` (stereo not given), for which the Potency is inactive: > 76.9 µM. Consider `COCCN(C(=O)CNC(=O)c1cccs1)C(C(=O)NC1CCCC1)c1cccs1` (stereo not given), for which the Potency is inactive: > 76.9 µM. For `COc1cc(C2c3c(oc4c(C)cc(C)cc4c3=O)C(=O)N2Cc2cccnc2)ccc1O` (stereo not given) the value was inactive: > 76.9 µM; for `CCNC(=O)Cc1ccc(NS(=O)(=O)c2ccc(F)cc2)cc1`, inactive: > 76.9 µM; for `O=C1CC(c2cccc(Cl)c2)CC(O)=C1C=NCCCO` (stereo not given), inactive: > 76.9 µM. For `COc1ccccc1-c1cc(C(=O)Nc2cccnc2)no1` the value was inactive: > 76.9 µM.

`CCOC(=O)N1CCN(C(=O)CC(=O)Nc2ccc3nc4n(c(=O)c3c2)CCCCC4)CC1`: the Potency was inactive: > 76.9 µM.

Regarding `Cn1nnc2cc(C(=O)N3CCCCCC3)ccc21`, the Potency is inactive: > 76.9 µM.

`COc1ccc(CNC(=O)c2cc(-c3ccccc3O)n[nH]2)cc1`: the Potency is inactive: > 76.9 µM. For `COc1ccc(-c2ccc(-c3noc(-c4ccncc4)n3)c(OC)n2)cc1` the value was inactive: > 76.9 µM; for `COc1ccccc1NC(=O)CSc1nnc(-c2ccoc2C)n1CCc1ccccc1`, inactive: > 76.9 µM. For `CC(=O)Nc1ccc(S(=O)(=O)c2ccc(N)cc2)cc1` the value was inactive: > 76.9 µM. Under `O=C(NCc1ccc2c(c1)OCO2)c1ccc(S(=O)(=O)NCC2CCCO2)cc1` (stereo not given) stands inactive: > 76.9 µM; under `Cc1ccc(C(=O)N(CN2CCCC2=O)c2ccccc2)cc1C`, inactive: > 76.9 µM. As for `CCOc1ccccc1NC(=O)c1cc(S(=O)(=O)N2CCC3(CC2)OCCO3)ccc1F`, the Potency entry is “inactive”. Under `OCCSc1nncn1/N=C/c1c[nH]c2ccccc12` stands inactive: > 76.9 µM; under `Cc1ccc(S(=O)(=O)Nc2nonc2C)cc1`, inactive: > 76.9 µM.

Turning to `Cc1cc(C(=O)OCC(=O)NCc2ccco2)c(C)n1-c1ccc(F)cc1`, the Potency is inactive: > 76.9 µM. On to `N=P(N1CCOCC1)(N1CCOCC1)C12CC3CC(CC(C3)C1)C2`, for which the Potency is inactive: > 76.9 µM. With `O=S(=O)(NCCCO)c1ccc2c(c1)Cc1cc(S(=O)(=O)NCCCO)ccc1-2`, the Potency is inactive: > 76.9 µM. Under `O=C(OCC(=O)N1CCN(C(=O)c2ccco2)CC1)c1ccc(S(=O)(=O)N2CCCCC2)cc1` stands inactive: > 76.9 µM; under `O=C(CSc1nc(C2CCCCC2)n(-c2ccccc2)n1)NCCN1C(=O)CSC1=O`, “inactive”; under `O=C(CN1CCCCCC1=O)OCc1ncc(-c2ccccc2)o1`, inactive: > 76.9 µM.

Source of the values: PubChem BioAssay AID360 (National Center for Advancing Translational Sciences (NCATS), 2006).
